In PubChem BioAssay AID504332 (National Center for Advancing Translational Sciences (NCATS), 2011):
The whole screen tested about 350,000 compounds, of which about 31,000 (8.9%) were called active. The inconclusive results got no clear call from the source; some entries with a clear call stand among them for comparison. Calls come from the whole dose curve; as a rule, active = well fitted inhibition curve with a large enough effect; inconclusive = small, poorly fitted or top-dose-only effect; inactive = no such curve, though single readings can be large or run the other way. Potencies beside an inconclusive call are fits to weak or partial responses and may not hold up.
% is set by controls: 0 for no effect and ±100 for the full control effect; potency is the fitted concentration of half-maximal effect; tags give direction and shape of the fitted curve.
Note: nearly all actives have a fitted effect of over 75% in size.

What follows are compounds tested against Histone-lysine N-methyltransferase EHMT2 (Homo sapiens) (UniProt Q96KQ7) (assay: qHTS Assay for Inhibitors of Histone Lysine Methyltransferase G9a). Conditions: G9a H3K9 monomethylation, AlphaScreen, 2 h; activity, negative = inhibition: at 59 µM (top of the series) unless noted.
Chain of UniProt Q96KQ7 (Q96KQ7 whole entry, looked up): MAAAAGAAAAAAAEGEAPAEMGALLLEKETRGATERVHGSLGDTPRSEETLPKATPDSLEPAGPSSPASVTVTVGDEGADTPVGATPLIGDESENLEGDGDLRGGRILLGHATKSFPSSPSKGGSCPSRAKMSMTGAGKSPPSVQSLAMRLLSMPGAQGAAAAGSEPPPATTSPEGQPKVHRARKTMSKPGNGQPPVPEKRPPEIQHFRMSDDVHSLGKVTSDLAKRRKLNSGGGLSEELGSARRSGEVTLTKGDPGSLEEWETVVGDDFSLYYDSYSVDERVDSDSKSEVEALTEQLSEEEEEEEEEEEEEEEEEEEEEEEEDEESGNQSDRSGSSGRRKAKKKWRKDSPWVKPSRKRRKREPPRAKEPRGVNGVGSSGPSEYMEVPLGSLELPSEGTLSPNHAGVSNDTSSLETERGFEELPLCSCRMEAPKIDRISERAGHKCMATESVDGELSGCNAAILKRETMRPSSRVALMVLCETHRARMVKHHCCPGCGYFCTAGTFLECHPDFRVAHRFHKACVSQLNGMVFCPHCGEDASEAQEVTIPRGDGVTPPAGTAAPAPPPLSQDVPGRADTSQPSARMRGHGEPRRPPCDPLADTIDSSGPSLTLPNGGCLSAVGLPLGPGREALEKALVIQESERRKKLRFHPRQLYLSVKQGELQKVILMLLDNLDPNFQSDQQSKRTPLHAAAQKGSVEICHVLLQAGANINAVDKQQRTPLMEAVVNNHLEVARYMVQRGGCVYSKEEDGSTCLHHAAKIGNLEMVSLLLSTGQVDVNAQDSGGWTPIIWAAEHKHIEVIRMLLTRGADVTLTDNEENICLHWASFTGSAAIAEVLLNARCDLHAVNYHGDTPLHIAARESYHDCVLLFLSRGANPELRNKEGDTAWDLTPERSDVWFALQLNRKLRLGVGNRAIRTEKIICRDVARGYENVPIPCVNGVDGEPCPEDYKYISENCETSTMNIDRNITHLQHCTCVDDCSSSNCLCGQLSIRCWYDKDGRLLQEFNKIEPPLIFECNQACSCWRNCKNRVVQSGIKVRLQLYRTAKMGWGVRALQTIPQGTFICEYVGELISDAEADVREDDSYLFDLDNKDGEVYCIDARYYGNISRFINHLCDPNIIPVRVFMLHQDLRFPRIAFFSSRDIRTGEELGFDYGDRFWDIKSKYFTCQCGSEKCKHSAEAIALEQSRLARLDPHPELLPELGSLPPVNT
Method in brief: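 Step 1: enzyme (final 20 nM) with compound, 15 min RT. Step 2: substrate peptide 500 nM and SAM 20 uM, 2 h RT. Step 3: anti-H3K9me1 antibody and AlphaScreen beads, 10 min, then plate read.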
For `Cc1cc(S(=O)(=O)N2CCN(c3ccccn3)CC2)c(C)cc1Cl`, the Potency was inconclusive: 79.4 µM [inhibitor, single point].
In the case of `COc1ccc(C(=O)Nc2nnc(C(C)C)s2)cc1OC`, the Potency is reported as “inactive”.
For `Cc1ccc(-n2ncc(C(=O)Nc3cc(Cl)cc(Cl)c3)c2C2CCNCC2)cc1C`, the Potency was inconclusive: 50.1 µM [inhibitor, partial curve].
With `COc1ccc2sc(N(Cc3cccnc3)C(=O)COc3ccccc3)nc2c1` the Potency was inconclusive: 3.55 µM [inhibitor, single point].
In the case of `CC(=O)c1ccccc1NC(=O)CCNC(=O)c1ccco1`, the Potency is reported as inconclusive: 89.1 µM [inhibitor, single point].
`Cc1ccc(/C=N/N2CCN(Cc3ccccc3)CC2)cc1` was tested, and the Potency was inconclusive: 79.4 µM [inhibitor, single point].
For `Cc1ccc(-n2c(C)c([N+](=O)[O-])c3ccc(O)cc32)cc1`, the Potency was active: 50.1 µM.
With `CNC(=S)NNC(=O)c1noc(C)c1C(=O)N1CCN(C(c2ccccc2)c2ccccc2)CC1` the Potency was inconclusive: 50.1 µM [inhibitor, partial curve, poor fit].
With `Cc1cc(C)nc(SCc2nnc(SCC(=O)Nc3ncc(C)s3)n2Cc2ccco2)n1` the Potency was inconclusive: 35.5 µM [inhibitor, single point].
`Cc1cc(C)cc(-n2cnc3cc(C(=O)O)ccc32)c1` was tested, and the Potency was inconclusive: 50.1 µM [inhibitor, partial curve].
With `COc1ccc(NC(=O)CN(C)S(=O)(=O)c2ccc(Br)s2)cc1OC` the Potency was inconclusive: 89.1 µM [inhibitor, single point].
`COc1ccc(NCN2C(=O)C3C4C=CC(C4)C3C2=O)cc1` (stereo unspecified) was tested, and the Potency was “inactive”.
With `COc1ccc(S(=O)(=O)N2CCCCCC2)cc1NC(=O)c1ccccc1F` the Potency was inconclusive: 1.12 µM [inhibitor, single point].
`Cc1nc(Sc2ccc(Cl)cc2)c(C#N)c(C)c1[N+](=O)[O-]` was tested, and the Potency was inconclusive: 14.1 µM [inhibitor, full curve].
`CCC1CCCCN1S(=O)(=O)c1cc(C(=O)Nc2ccc(C)c(F)c2)ccc1F` (stereo unspecified) was tested, and the Potency was “inactive”.
In the case of `CC(C)COc1ccc(-c2nn(-c3ccccc3)cc2/C=C2/SC(=S)N(CC(=O)O)C2=O)cc1`, the Potency is reported as active: 50.1 µM.
For `Cc1ccc(Cn2nnnc2CN2CCC(O)(c3ccc(F)cc3)CC2)cc1`, the Potency was inconclusive: 79.4 µM [inhibitor, single point].
For `O=C1CC(N2CCCc3ccccc32)C(=O)N1c1ccccc1Cl` (stereo unspecified), the Potency was inconclusive: 31.6 µM [inhibitor, single point].
In the case of `Cc1cc(C)n(C(=O)Cn2nc(C)c(Cl)c2C)n1`, the Potency is reported as “inactive”.
With `Cc1ccc(CNC(=O)c2cnn(-c3cccc(C)c3)c2C2CCN(C(=O)OC(C)(C)C)CC2)cc1` the Potency was inconclusive: 0.355 µM [inhibitor, full curve, poor fit].
For `Cc1ccc(S(=O)(=O)N2CC(O)CC2C(=O)O)cc1` (stereo unspecified), the Potency was “inactive”.
`Cc1ccc(NC(=O)CSc2n[nH]c(=O)n2C2CC2)cc1S(=O)(=O)N1CCOCC1` was tested, and the Potency was inconclusive: 35.5 µM [inhibitor, partial curve, poor fit].
With `COc1cc(-c2nc3ccc4ccccc4c3c3c2CCC3)cc(OC)c1O` the Potency was active: 79.4 µM.
In the case of `Cc1csc(NC(=O)CSc2[nH]c(=O)ncc2C)n1`, the Potency is reported as “inactive”.
`Cc1cc(CN2CCN(c3cccc(C)c3C)CC2)cs1` was tested, and the Potency was “inactive”.
In the case of `CCOC(=O)C1=C(CN2CCN(c3ccc(OC)cc3)CC2)NC(=O)NC1c1ccc(Cl)cc1` (stereo unspecified), the Potency is reported as active: 7.94 µM.
With `CCC(C)[C@H](NC(=O)N1CCC(C)CC1)C(=O)OC` (stereo partly specified) the Potency was “inactive”.
With `COc1ccc(-c2cn(-c3ccc(C)c(Cl)c3)c(=S)[nH]2)cc1OC` the Potency was active: 50.1 µM.
`CCOc1ccccc1Nc1nc(-c2sc(NC(=O)c3cccc(Cl)c3)nc2C)cs1` was tested, and the Potency was active: 39.8 µM.
`COCCNC(=O)CSc1nc(-c2ccccc2)[nH]c1-c1ccc(OC)cc1` was tested, and the Potency was “inactive”.
For `COc1cccc(CN(C(=O)Cc2c[nH]c3ccccc23)C(C(=O)NC2CCCCC2)c2cccs2)c1` (stereo unspecified), the activity, negative = inhibition was inconclusive: -55.1% [inhibitor].
`O=[N+]([O-])c1ccc2nc(Cl)nc(-c3ccccc3)c2c1` was tested, and the Potency was inconclusive: 79.4 µM [inhibitor, single point].
In the case of `Cc1cc2nc(CS(=O)(=O)c3ccccc3)cc(=O)n2[nH]1`, the Potency is reported as inconclusive: 89.1 µM [inhibitor, single point].
`Cc1ccc(Cn2cc(C(=O)c3ccc4c(c3)OCO4)c(=O)c3cc(C)ccc32)cc1` was tested, and the Potency was “inactive”.
With `NCCc1nc2cccnc2n1-c1ccccc1` the Potency was “inactive”.
For `O=C(c1ccc(Cl)c([N+](=O)[O-])c1)N(Cc1ccccc1)C1CCS(=O)(=O)C1` (stereo unspecified), the Potency was “inactive”.
In the case of `COc1ccc(C2(NC(C)=O)CCN(C(=O)c3ccco3)CC2)cc1`, the Potency is reported as inconclusive: 100 µM [inhibitor, single point].
For `Cc1cc(C(=O)NCCC(c2ccccc2)c2ccccc2)c(C)o1`, the Potency was inconclusive: 8.91 µM [inhibitor, partial curve, poor fit].
With `CCc1nc(SCC(=O)Nc2ccc(C(=O)O)cc2)n[nH]1` the Potency was active: 44.7 µM.
`O=C(c1ccco1)N1CCN(c2cc(N3CCOCC3)c(F)cc2[N+](=O)[O-])CC1` was tested, and the Potency was inconclusive: 6.31 µM [inhibitor, partial curve, poor fit].
With `C[C@@H](C(=O)N1CCN(C(=O)OC(C)(C)C)CC1)n1cc(CCCN=C(NC(=O)OC(C)(C)C)NC(=O)OC(C)(C)C)nn1` the activity, negative = inhibition was inactive: -13.3% [at 12.7 µM].
`O=C(NCCO)c1c(O)c2cccc3c2n(c1=O)CC3` was tested, and the Potency was inconclusive: 0.112 µM [inhibitor, full curve, poor fit].
For `Cn1c(CN2CCCC2)nc2cc(NS(=O)(=O)c3ccccc3)ccc21`, the Potency was “inactive”.
`COc1ccc(C2c3c(n[nH]c3C)CC(C)(O)C2C(C)=O)cc1OC` (stereo unspecified) was tested, and the Potency was inconclusive: 39.8 µM [inhibitor, single point].
With `C=CCOC(=O)C1=C(C)NC(C)=C(C(=O)OCC=C)C1c1ccco1` the Potency was inconclusive: 112 µM [inhibitor, partial curve, poor fit].
In the case of `COc1ccc(C(C)=O)cc1COC(=O)CNC(=O)c1ccccc1F`, the Potency is reported as “inactive”.
